{"source": "PubChem BioAssay (NCI)", "test_in_all_cases": "NCI tumour cell line growth inhibition, 48 h", "key": {"CCRF-CEM leukemia": {"tested_on": "CCRF-CEM leukemia"}, "HOP-92 NSCLC": {"tested_on": "HOP-92 NSCLC"}, "NCI-H226 lung": {"tested_on": "NCI-H226 lung"}, "NCI-H23 lung": {"tested_on": "NCI-H23 lung"}, "SR leukemia": {"tested_on": "SR leukemia"}, "UACC-257 melanoma": {"tested_on": "UACC-257 melanoma"}}, "note": "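Cultured in 96-well plates, cells were exposed to test compound for 48 hours across five concentrations. Here, GI50 denotes the concentration required for 50% inhibition of growth. Definition used: TGI = concentration required for complete inhibition of growth.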 Calls of active or inactive are those of the source.", "data": [{"smiles": "Fc1ccc(-c2ncn(C3CCNCC3)c2-c2ccnc(Oc3cccc(C(F)(F)F)c3)n2)cc1", "values": [{"measurement": "GI50", "setting": "CCRF-CEM leukemia", "value": "inactive"}, {"measurement": "TGI", "setting": "CCRF-CEM leukemia", "value": 12.7, "unit": "µM"}, {"measurement": "GI50", "setting": "HOP-92 NSCLC", "value": "inactive"}, {"measurement": "TGI", "setting": "HOP-92 NSCLC", "value": 6.28, "unit": "µM"}, {"measurement": "GI50", "setting": "NCI-H226 lung", "value": "inactive"}, {"measurement": "TGI", "setting": "NCI-H226 lung", "value": 8.16, "unit": "µM"}, {"measurement": "GI50", "setting": "NCI-H23 lung", "value": "inactive"}, {"measurement": "TGI", "setting": "NCI-H23 lung", "value": 10.2, "unit": "µM"}, {"measurement": "GI50", "setting": "SR leukemia", "value": "inactive"}, {"measurement": "TGI", "setting": "SR leukemia", "value": 10.3, "unit": "µM"}, {"measurement": "GI50", "setting": "UACC-257 melanoma", "value": "inactive"}, {"measurement": "TGI", "setting": "UACC-257 melanoma", "value": 7.67, "unit": "µM"}]}]}
